# Test results: the supplement of paper PMC11417369
# This is one part of the list.
# Tested on: PfHDP1 homeodomain (GST-tagged)
# Test: gcPBM binding intensity (ln(normalized median fluorescence intensity)); higher = stronger DNA binding
# How it was run: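 Alexa488 anti-GST antibody, scanned at 488 nm, detected GST-tagged P. falciparum DNA-binding domains that had been expressed in E. coli and incubated for 1 h on an Agilent 4 × 180k array. The array carried primer-extended double-stranded 36-bp intergenic genomic probes and negative controls. Binding intensity is the highest Masliner-normalised natural-log median intensity across replicate spots of either orientation of each probe.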
row,Sequence,gcPBM binding intensity (ln)
1,AAGAATATATAGGACACACATACAATAATAAATATA [CACACA_site4119],6.77
2,TATCCTACATTAACAAGTACAAAGAGATCCTACGTA [XGTACX_site4252],6.16
3,TTTCTCCATATTAAAGTGCATTAATAACAAAAATAA [GTGCAC_site9934],8.23
4,AACGCCACTTCAATGGCACACACCAATTATTTTTCA [CACACA_site1026],6.31
5,GCCATTAATTTATACACACACATTAAAATTTTTTAT [CACACA_site4575],7.61
6,ATATATAATAATATATGTACATAATATTTTTTTTTT [XGTACX_site1941],6.37
7,TAATGAAGATATATAACACACAAAAGTTATAAATAT [CACACA_site6678],6.31
8,GCTATAAATACAGACGCACACATATACATACATATA [CACACA_site3329],7.21
9,AAAAAAAAAAAAAAAAAATAATAAAAAATAAAAAAA [GTGCAC_negctrl_site341],6.46
10,ATATATATAAAATAAAGTACCCGTAAAACCTATATG [XGTACX_site6937],6.8
11,TAATTATAAAAATAAAACAACCAAATTTGTTATATA [CACACA_negctrl_site750],6.31
12,TAATTTATAAATAATTGTACATAGTTTATTTAGATT [XGTACX_site4599],6.07
13,GAAAGGAAAAGTTGAACACACAAAGTAAACTATAAG [CACACA_site3535],6.55
14,TATGTTAATCCTATTTGTACATATAATCGAATTAAA [XGTACX_site7090],6.35
15,GACGACTATATTAATTGTACTCAATTTAAGCATAAT [XGTACX_site2750],6.27
16,AGATTGAAATATAGTTGTACAAATATTTTAAAACAT [XGTACX_site3026],6.92
17,CAATCAACAAAACATACACACACATATATATATATA [CACACA_site8979],9.12
18,TTGTTCCAATAAAATCGTACAATTAAACAACCAAAC [XGTACX_site5759],7.18
19,TTTTTTTCTATAATACACCAGAAAAAAAAATTAAAA [TGCATGCA_negctrl_site257],6.5

row,Sequence,gcPBM binding intensity (ln)
1,TTAAAATTAAAAATAGGTACACATATGAACAAGGAC [XGTACX_site1180],7.69
2,TTATATGATATATGACGTACATATTAATAACATCTA [XGTACX_site6716],6.22
3,TGTAATATTTTATAAAGTACATTATAATATAATTCA [XGTACX_site2961],6.04
4,CAAGAACAAAAAATATGTACATATAATTATATATAT [XGTACX_site2082],7.01
5,CATATCTCTTATTAATGTACATTTTTAAAAGTAAAT [XGTACX_site2847],6.5
6,TTTATATAATGGAAAAGTACTCAGGAAATTTATACA [XGTACX_site3635],6.46
7,CTTTTTTTTATGAACAGTACAGAAATATATATATAC [XGTACX_site5613],6.63
8,TTATTACATATAAAGGAAAATAGCATCTAGATTAAA [XGTACX_negctrl_site435],6.36
9,TCTTTTTTGAACTAGCGTACATGAAAATATTTATAG [XGTACX_site7359],6.38
10,AAAAAAAAAAAAAAAAAATACATATACATTTGTGCA [CACACA_negctrl_site1431],6.76
11,TTTTTATTTATATATAAGGAAAATGCGGTATATATT [CACACA_negctrl_site1770],6.73
12,TAAATCCGTTTGATGGGTACATACATACATACATAT [XGTACX_site8889],6.34
13,TTTTTATAAGCATAAAGTACAAATATTTTTTAGTTG [XGTACX_site4140],6.15
14,AACACCCATGGACACACACACATATATATATATATA [CACACA_site5809],9.32
15,ACAATAAAATATGGCACACATATATATATATATTTA [CACACA_site3],6.47
16,ATTTATTTTAGTAAAGCACACGTGTAAAATATATCT [CACACA_site4820],7.11
17,GTAATTTTTTTCTATACACACATATCTATAATATAT [CACACA_site7284],6.94
18,TACTTATAATTTCAATGTACATATATATAATATCAT [XGTACX_site2424],6.58
19,ATTTTAAATATGGAATGTACTTAAAAAAAATTTCAT [XGTACX_site5058],6.06

row,Sequence,gcPBM binding intensity (ln)
1,ATTTCTTATTAAATTACACACAAAGTAAATAAATCT [CACACA_site3924],6.44
2,AATTAAATATTATAAACACACATATAGATTATTTTT [CACACA_site6538],6.15
3,AAATACATAACTTAAAATTTGTTCATATCTATACAT [TGCATGCA_negctrl_site249],6.38
4,TATAATAATATGGATTGTACATATATATTTAATTAA [XGTACX_site4327],6.16
5,TTTTCCTTTTTTTTTACATGCAGATATAGAAAGGTA [TGCATGCA_site106],6.36
6,TTGTTTTGGATTATCACACATATAATATATACTCAT [CACACA_site4780],6.75
7,ACAAAATAAATATGAACACACACATTTATGCCTTTA [CACACA_site8346],6.08
8,ATAATTATACATATTACACACTCTCTTGATCTTTTT [CACACA_site3853],6.88
9,TATCACATATTATGATGTACAAGGTTTCTGACTAAT [XGTACX_site2763],6.14
10,TTTTTATACAACTTATAATACATCTGAAAATATAAA [XGTACX_negctrl_site36],6.32
11,TTGTCTGACTAATTTTTTTCTGTTTGTACGTTCTTA [GTGCAC_negctrl_site602],6.38
12,ACACAAAACAAAAAGGTGCTGTATAAATGGGTGTAT [GTGCAC_site9905],7
13,CATATATAAAAAAACACACACATATTTATATTTATA [CACACA_site6682],6.58
14,AAAAAAATTTATAAATATTTTATTAATATATTTACC [GTGCAC_negctrl_site690],6.51
15,CATATTTCTTACATTTGTACTTAATAAAATTAATCA [XGTACX_site7224],6.53
16,GATATATATATTCACACACACATGGAAATATATATA [CACACA_site382],6.64
17,ATATATATATGTGCCAGTACACATGTATACATTATA [XGTACX_site3899],8.3
18,AAAATTAATAAATAAACACACATATTTATATTTATA [CACACA_site7266],6.02
